Source: PubChem BioAssay AID1745853 (National Center for Advancing Translational Sciences (NCATS), 2022)
The other results are listed elsewhere or left out. Shown are side measurements of this screen, not its main read-out; they come without a call.

Experiments:
Test in all cases: Primary Screen for Target Class Profiling of Small Molecule Inhibitors of Methyltransferases
[1] = target: Glycine N-methyltransferase (Homo sapiens) (UniProt Q14749); conditions: purified enzyme, MTase-Glo SAH luminescence; measured here: GNMT inhibition; at 40 µM; stronger effect = lower value
Procedure, shortened: (§1)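 Each enzyme was reacted with SAM and its substrate, with compounds tested once at 40 uM; SAH formed was read by MTase-Glo luminescence.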

[2] = target: Guanidinoacetate N-methyltransferase (Homo sapiens) (UniProt Q14353); conditions: purified enzyme, MTase-Glo SAH luminescence; measured here: GAMT inhibition; at 40 µM; stronger effect = lower value
Procedure, shortened: as §1

[3] = target: Histamine N-methyltransferase (Homo sapiens) (UniProt P50135); conditions: purified enzyme, MTase-Glo SAH luminescence; measured here: HNMT inhibition; at 40 µM; stronger effect = lower value
Procedure, shortened: as §1

[4] = target: Nicotinamide N-methyltransferase (Homo sapiens) (UniProt P40261); conditions: purified enzyme, MTase-Glo SAH luminescence; measured here: NNMT inhibition; at 40 µM; stronger effect = lower value
Procedure, shortened: as §1

[5] = target: Phenylethanolamine N-methyltransferase (Homo sapiens) (UniProt P11086); conditions: purified enzyme, MTase-Glo SAH luminescence; measured here: PNMT inhibition; at 40 µM; stronger effect = lower value
Procedure, shortened: as §1
% is scaled to controls: 0 for no effect and ±100 for the full control effect.

COC(=O)CNC(=O)NCCc1ncc(C)n1C1CCCC1
activity change, negative = inhibition [1]: -2.05%
activity change, negative = inhibition [2]: -2.74%
activity change, negative = inhibition [3]: -19.3%
activity change, negative = inhibition [4]: -6%
activity change, negative = inhibition [5]: -5.28%

COc1ccc(CNC(=O)C[C@@H]2C[C@H]3O[C@H](CNC4CCCC4)[C@@H](O)[C@H]3O2)cc1
activity change, negative = inhibition [1]: -4.34%
activity change, negative = inhibition [2]: -3.21%
activity change, negative = inhibition [3]: -2.78%
activity change, negative = inhibition [4]: -9.31%
activity change, negative = inhibition [5]: 6.78%

CCNC(=O)N1CCCN(c2ccc(C(=O)NCCc3ccc(Cl)cc3Cl)cc2NC(=O)c2cccc(Cl)c2)CC1
activity change, negative = inhibition [1]: -3.19%
activity change, negative = inhibition [2]: -16.9%
activity change, negative = inhibition [3]: 7.02%
activity change, negative = inhibition [4]: -36.6%
activity change, negative = inhibition [5]: -13.4%

C=C[C@@]1(C)CC(=O)C2[C@](C)(O1)[C@@H](OC(C)=O)[C@@H](O)[C@H]1C(C)(C)CCC[C@]21C (stereo not given in full)
activity change, negative = inhibition [1]: 4.24%
activity change, negative = inhibition [2]: 9.25%
activity change, negative = inhibition [3]: 12.3%
activity change, negative = inhibition [4]: -5.97%
activity change, negative = inhibition [5]: 5.8%

COc1ccccc1N1CCN(CC[C@H]2CN(C(=O)NC3CCCCC3)CC[C@H]2CC(=O)O)CC1
activity change, negative = inhibition [1]: -2.91%
activity change, negative = inhibition [2]: -7.2%
activity change, negative = inhibition [3]: -4.09%
activity change, negative = inhibition [4]: -8.48%
activity change, negative = inhibition [5]: -9.68%

O=C(CCCCCCC(=O)Nc1ccc([C@H]2O[C@@H](CSc3nc(-c4ccccc4)c(-c4ccccc4)o3)C[C@@H](c3ccc(CO)cc3)O2)cc1)NO
activity change, negative = inhibition [1]: -5.17%
activity change, negative = inhibition [2]: 7.92%
activity change, negative = inhibition [3]: -2.81%
activity change, negative = inhibition [4]: -28.4%
activity change, negative = inhibition [5]: -10.4%

CCOc1ccc(CNS(=O)(=O)c2ccc3[nH]c(=O)[nH]c3c2)cc1OC
activity change, negative = inhibition [1]: 3.94%
activity change, negative = inhibition [2]: 0.138%
activity change, negative = inhibition [3]: 5.21%
activity change, negative = inhibition [4]: 0.394%
activity change, negative = inhibition [5]: -11.3%

CC(=O)N[C@H]1C[C@@H](c2cc(C)c(C)cc2C)O[C@@H](C(C)(C)C)C1
activity change, negative = inhibition [1]: -5.26%
activity change, negative = inhibition [2]: -6.03%
activity change, negative = inhibition [3]: -6.39%
activity change, negative = inhibition [4]: -8.54%
activity change, negative = inhibition [5]: -4.02%

Cn1c(=O)c2ccccc2n2c(CCC(=O)NCCCN3CCN(c4cccc(Cl)c4)CC3)nnc12
activity change, negative = inhibition [1]: -2.73%
activity change, negative = inhibition [2]: 3.49%
activity change, negative = inhibition [3]: -1.84%
activity change, negative = inhibition [4]: 0.3%
activity change, negative = inhibition [5]: 0.942%

Cc1ccc(N2C(=O)c3cc4ccccc4n3CC2(C)C(=O)NC2CCCC2)cc1 (stereo not given)
activity change, negative = inhibition [1]: 4.32%
activity change, negative = inhibition [2]: 0%
activity change, negative = inhibition [3]: 0.819%
activity change, negative = inhibition [4]: 5%
activity change, negative = inhibition [5]: 1.27%

Cc1ccccc1CN1CCn2c1nc1c(c2=O)CN(Cc2ccccc2)CC1
activity change, negative = inhibition [1]: 2.81%
activity change, negative = inhibition [2]: 3%
activity change, negative = inhibition [3]: 0.777%
activity change, negative = inhibition [4]: -13.3%
activity change, negative = inhibition [5]: -5.83%

Cc1ccc(NS(=O)(=O)c2cc3c(cc2Cl)n(C)c(=O)n3C)cc1C
activity change, negative = inhibition [1]: -3.34%
activity change, negative = inhibition [2]: 3.62%
activity change, negative = inhibition [3]: -6.31%
activity change, negative = inhibition [4]: -11.5%
activity change, negative = inhibition [5]: -6.83%

CN1CCC(C(=O)N2CCC(n3c(=O)[nH]c4ccccc43)CC2)CC1
activity change, negative = inhibition [1]: -0.145%
activity change, negative = inhibition [2]: -1.34%
activity change, negative = inhibition [3]: -17.1%
activity change, negative = inhibition [4]: 2.76%
activity change, negative = inhibition [5]: 1.35%

COCC1CN(C2CCC2)CC12CCN(S(=O)(=O)c1cnc[nH]1)CC2 (stereo not given)
activity change, negative = inhibition [1]: -5.61%
activity change, negative = inhibition [2]: -6.25%
activity change, negative = inhibition [3]: -3.71%
activity change, negative = inhibition [4]: -11.3%
activity change, negative = inhibition [5]: -2.65%

Cn1c(=O)c2ccc(C(=O)NC3CCCC3)cc2n2c(=O)n(CC(=O)Nc3cccc(Cl)c3)nc12
activity change, negative = inhibition [1]: 1.98%
activity change, negative = inhibition [2]: 1.1%
activity change, negative = inhibition [3]: 4.77%
activity change, negative = inhibition [4]: -3.51%
activity change, negative = inhibition [5]: 1.16%

CC1(C(=O)NC2CCCCC2)Cn2c(ccc2-c2ccco2)C(=O)N1CCCN1CCCCC1 (stereo not given)
activity change, negative = inhibition [1]: 6.97%
activity change, negative = inhibition [2]: 4.77%
activity change, negative = inhibition [3]: 4.11%
activity change, negative = inhibition [4]: 11.2%
activity change, negative = inhibition [5]: 3.09%

O=C(Cn1ncc2ccccc2c1=O)N1CCCCC1CCn1cccn1 (stereo not given)
activity change, negative = inhibition [1]: -5.23%
activity change, negative = inhibition [2]: -9.13%
activity change, negative = inhibition [3]: -4.29%
activity change, negative = inhibition [4]: -8.73%
activity change, negative = inhibition [5]: -10.5%

Cc1ccc(S(=O)(=O)N2CCc3nc4cc[nH]n4c(=O)c3C2)cc1C
activity change, negative = inhibition [1]: -17.2%
activity change, negative = inhibition [2]: -11.1%
activity change, negative = inhibition [3]: -8.62%
activity change, negative = inhibition [4]: -19.3%
activity change, negative = inhibition [5]: -11.8%

Cc1ccccc1CN1C(=O)c2ccc(-c3ccccc3)n2CC1(C)C(=O)NC1CCCCCCC1 (stereo not given)
activity change, negative = inhibition [1]: -2.54%
activity change, negative = inhibition [2]: 0.474%
activity change, negative = inhibition [3]: -4.4%
activity change, negative = inhibition [4]: -3.4%
activity change, negative = inhibition [5]: 0.618%

CC1CCCCC1NC(=O)C1(C)Cn2c(cc3sccc32)C(=O)N1Cc1cccs1 (stereo not given)
activity change, negative = inhibition [1]: 0.327%
activity change, negative = inhibition [2]: 4.91%
activity change, negative = inhibition [3]: -3.35%
activity change, negative = inhibition [4]: -7.88%
activity change, negative = inhibition [5]: -2.19%

O=[N+]([O-])c1ccc(Oc2ccc3c(c2)CCC(c2ccccc2)O3)nc1 (stereo not given)
activity change, negative = inhibition [1]: -3.26%
activity change, negative = inhibition [2]: -16.6%
activity change, negative = inhibition [3]: 6.77%
activity change, negative = inhibition [4]: -17%
activity change, negative = inhibition [5]: -9.72%

O=C(/C=C/c1ccc(O)cc1)OCC1OC(O)C(OC2OC(CO)C(O)C(O)C2O)C(O)C1O (stereo not given)
activity change, negative = inhibition [1]: 4.91%
activity change, negative = inhibition [2]: -2.13%
activity change, negative = inhibition [3]: 5.07%
activity change, negative = inhibition [4]: -9.96%
activity change, negative = inhibition [5]: 2.57%

CCOC(=O)C1CCN(C(=O)c2ccc3oc(-c4cccnc4)nc3c2)CC1
activity change, negative = inhibition [1]: -1.71%
activity change, negative = inhibition [2]: -1.87%
activity change, negative = inhibition [3]: 0.335%
activity change, negative = inhibition [4]: -6.37%
activity change, negative = inhibition [5]: -7.84%

O=C(Nc1cc(-c2ccncc2)nn1-c1ccccc1)c1ccc(Cl)cc1
activity change, negative = inhibition [1]: -9.6%
activity change, negative = inhibition [2]: -6.59%
activity change, negative = inhibition [3]: -6.54%
activity change, negative = inhibition [4]: -16.7%
activity change, negative = inhibition [5]: -6.29%

CCCN1CC2(CCN(Cc3nc(CCOC)no3)CC2)CC1C(=O)O (stereo not given)
activity change, negative = inhibition [1]: -4.65%
activity change, negative = inhibition [2]: -10.8%
activity change, negative = inhibition [3]: -5.07%
activity change, negative = inhibition [4]: -13.1%
activity change, negative = inhibition [5]: -10.5%

CCCCCCCCCC(=O)NC(CN1CCOCC1)[C@H](O)c1ccccc1 (stereo not given in full)
activity change, negative = inhibition [1]: -8.56%
activity change, negative = inhibition [2]: -1.21%
activity change, negative = inhibition [3]: -1.49%
activity change, negative = inhibition [4]: -13.6%
activity change, negative = inhibition [5]: -1.77%

COc1cccc(CNC(=O)c2cc3n(n2)CC(C)(C(=O)NCc2ccccc2)N(C)C3=O)c1 (stereo not given)
activity change, negative = inhibition [1]: -4.69%
activity change, negative = inhibition [2]: -0.792%
activity change, negative = inhibition [3]: -6.99%
activity change, negative = inhibition [4]: -7.45%
activity change, negative = inhibition [5]: -6.96%

CS(=O)(=O)N(Cc1cccnc1)C1CN(C(=O)Nc2ccc3c(c2)OCCO3)C1
activity change, negative = inhibition [1]: -2.41%
activity change, negative = inhibition [2]: 0.973%
activity change, negative = inhibition [3]: 1.6%
activity change, negative = inhibition [4]: -5.71%
activity change, negative = inhibition [5]: -1.24%

COCCNC(=O)[C@@H]1C[C@H](Oc2ccccc2)CN1C(=O)c1cnccn1
activity change, negative = inhibition [1]: 2.93%
activity change, negative = inhibition [2]: 1.51%
activity change, negative = inhibition [3]: 0.978%
activity change, negative = inhibition [4]: 3.42%
activity change, negative = inhibition [5]: -0.803%

Cc1nc2cc(C(=O)NCc3ccccn3)nn2c(C)c1Cc1cccc(Cl)c1
activity change, negative = inhibition [1]: -15.6%
activity change, negative = inhibition [2]: 7.1%
activity change, negative = inhibition [3]: 1.86%
activity change, negative = inhibition [4]: -40.5%
activity change, negative = inhibition [5]: -3.99%

COc1ccccc1CNC(=O)C(C)n1ccc2cc(S(=O)(=O)N3CCCC3)ccc21 (stereo not given)
activity change, negative = inhibition [1]: 0.421%
activity change, negative = inhibition [2]: 5.08%
activity change, negative = inhibition [3]: -2.61%
activity change, negative = inhibition [4]: -0.145%
activity change, negative = inhibition [5]: -1.87%

CC1CCN(S(=O)(=O)c2ccc3c(ccn3CCC(=O)N3CCN(c4ccccc4)CC3)c2)CC1
activity change, negative = inhibition [1]: -5.51%
activity change, negative = inhibition [2]: -4.89%
activity change, negative = inhibition [3]: -5.4%
activity change, negative = inhibition [4]: -9.65%
activity change, negative = inhibition [5]: -6.29%

COCC(=O)N[C@H]1C[C@@H](CO)N(Cc2cccc(OC)c2)C1
activity change, negative = inhibition [1]: -5.58%
activity change, negative = inhibition [2]: -8.8%
activity change, negative = inhibition [3]: -6.3%
activity change, negative = inhibition [4]: -7.22%
activity change, negative = inhibition [5]: -10.2%

CCc1cccc(N2C(=O)c3ccc(-c4ccco4)n3CC2(C)C(=O)NCc2ccc(Cl)cc2)c1 (stereo not given)
activity change, negative = inhibition [1]: -8.71%
activity change, negative = inhibition [2]: 4.99%
activity change, negative = inhibition [3]: 1.04%
activity change, negative = inhibition [4]: -2.62%
activity change, negative = inhibition [5]: -3.35%

CC(=O)[C@@H]1C[C@H](C(C)(C)O[C@@H]2O[C@H](CO)[C@@H](O)[C@H](O)[C@H]2O)CC[C@@]2(CO)OC(=O)C[C@@H]12
activity change, negative = inhibition [1]: 0%
activity change, negative = inhibition [2]: 7.24%
activity change, negative = inhibition [3]: 7.91%
activity change, negative = inhibition [4]: -4.45%
activity change, negative = inhibition [5]: 4.59%

C=C1CCC2C(C)(CO[C@@H]3O[C@H](CO)[C@@H](O)[C@H](O)[C@H]3O)C(O)CCC2(C)C1C(=O)CC1=CCOC1=O (stereo not given in full)
activity change, negative = inhibition [1]: 1.97%
activity change, negative = inhibition [2]: 3.72%
activity change, negative = inhibition [3]: 13.5%
activity change, negative = inhibition [4]: -7.24%
activity change, negative = inhibition [5]: 4.53%

CCOC(=O)c1cc2n(n1)CC(C)(C(=O)NCCC(C)C)N(c1cccc(C)c1C)C2=O (stereo not given)
activity change, negative = inhibition [1]: -2.96%
activity change, negative = inhibition [2]: 0.013%
activity change, negative = inhibition [3]: 5.7%
activity change, negative = inhibition [4]: 7.25%
activity change, negative = inhibition [5]: 1.74%
